Source: article PMC4336329 (PLoS ONE, 2015)
In all, about 310,000 compounds went through this assay and about 14,000 (4.5%) showed an effect of 50% or more. Effects have a minus sign here. Some of the results follow.

target: human ether-à-go-go-related gene (hERG) potassium channel (human, UniProt Q12809); test: primary screen, population patch clamp on CHO cells stably expressing hERG
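Further: peak tail current of the secondary pulse compared with the same well before compound.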

Sequence of human ether-à-go-go-related gene (hERG) potassium channel (Q12809 whole entry, looked up): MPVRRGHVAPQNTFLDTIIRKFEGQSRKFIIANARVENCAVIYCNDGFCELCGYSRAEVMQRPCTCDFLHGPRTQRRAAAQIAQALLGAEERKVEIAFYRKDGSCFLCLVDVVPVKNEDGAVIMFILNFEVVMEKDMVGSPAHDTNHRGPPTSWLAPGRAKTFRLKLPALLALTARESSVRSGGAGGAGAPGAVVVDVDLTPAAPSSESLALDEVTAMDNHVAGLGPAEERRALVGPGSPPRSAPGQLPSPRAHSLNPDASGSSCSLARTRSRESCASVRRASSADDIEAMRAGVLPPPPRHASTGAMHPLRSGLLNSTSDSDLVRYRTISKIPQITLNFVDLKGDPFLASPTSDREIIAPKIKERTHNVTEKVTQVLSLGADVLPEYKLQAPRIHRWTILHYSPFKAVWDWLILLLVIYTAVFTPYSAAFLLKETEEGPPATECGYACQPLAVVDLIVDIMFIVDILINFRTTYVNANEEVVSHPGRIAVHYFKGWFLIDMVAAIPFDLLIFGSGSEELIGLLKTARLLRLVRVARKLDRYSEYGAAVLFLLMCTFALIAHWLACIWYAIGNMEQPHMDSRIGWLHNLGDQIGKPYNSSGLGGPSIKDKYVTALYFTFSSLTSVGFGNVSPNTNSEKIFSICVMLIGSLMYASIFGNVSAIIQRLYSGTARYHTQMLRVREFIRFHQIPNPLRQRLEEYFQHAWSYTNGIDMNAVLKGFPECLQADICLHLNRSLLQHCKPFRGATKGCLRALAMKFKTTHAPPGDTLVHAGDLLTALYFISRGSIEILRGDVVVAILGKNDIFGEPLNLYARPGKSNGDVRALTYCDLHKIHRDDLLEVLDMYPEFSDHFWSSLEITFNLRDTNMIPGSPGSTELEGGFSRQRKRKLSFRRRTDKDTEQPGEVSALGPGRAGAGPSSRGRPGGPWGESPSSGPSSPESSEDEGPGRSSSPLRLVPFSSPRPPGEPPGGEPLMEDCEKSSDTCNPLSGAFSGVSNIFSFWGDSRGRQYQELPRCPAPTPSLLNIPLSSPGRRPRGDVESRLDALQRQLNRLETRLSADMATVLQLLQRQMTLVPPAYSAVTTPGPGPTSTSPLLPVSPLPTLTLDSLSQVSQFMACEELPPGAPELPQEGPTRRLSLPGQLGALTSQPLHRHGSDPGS

Structure (SMILES) | hERG current change (%, negative = inhibition) at 10uM [%]
COc1ccc(CNc2ccccc2)cc1Br | -40.2
CCOc1ccc(-c2cc(C(=O)N/N=C/c3cccnc3)c3ccccc3n2)cc1 | 1.66
O=C(NCCc1ccccc1)C(c1ccncc1)N(C(=O)c1csnn1)C1CC1 (stereo not shown) | -7.72
Cc1cccc(N(C(=O)c2nsc(Cl)c2Cl)C(C(=O)NC2CCCC2)c2ccc(O)cc2)c1 (stereo not shown) | -2.24
Oc1cc(-c2ccccc2)c2ccccc2c1 | 36
C/C(=N\N=C(N)N)c1cccc(Cl)c1 | 0.717
Cc1cccc(N2CC(C(=O)O)CC2=O)c1 (stereo not shown) | -15.2
O=C(CN1C(=O)NC2(CCCC2)C1=O)Nc1nc(-c2ccc(F)c(F)c2)cs1 | -3.57
COc1ccc(-n2c(SCC(=O)Nc3cc(C(=O)O)ccc3C)nc3ccccc3c2=O)cc1Cl | 21.3
CC(OC(=O)c1cccc(S(=O)(=O)N(C)C)c1)C(=O)NCc1ccc2c(c1)OCO2 (stereo not shown) | -7.17
Cc1c(-c2ccco2)[n+](=O)c2c(n1[O-])CCC2 | 3.22
Cc1cc(NC(=O)CSCc2ccccc2C)no1 | 5.18
O=C(CN1C(=O)C2CCCCC2C1=O)N1CCN(c2ccccc2)CC1 (stereo not shown) | 17.9
COc1ccc(-c2onc(C)c2-c2cnn(-c3ccccc3)c2)c(O)c1C | 8.33
COc1ccc(CCNC(=O)CSc2nnnn2-c2ccccc2)cc1 | -8.8
CN(CC(=O)Nc1cccc(F)c1)C(=O)c1ccc(N2CCCCCC2)c([N+](=O)[O-])c1 | 17.9
CCc1cccc(C)c1NC(=O)C(c1ccc(O)cc1)N1CCC1=O (stereo not shown) | 15
CC(C)c1c(C(=O)N/N=C/c2ccc3c(c2)OCO3)nnn1-c1nonc1N | 9.69
O=C(COc1ccc(S(=O)(=O)N2CCOCC2)cc1Cl)NCC1CCCO1 (stereo not shown) | 4.46
CC(CC(=O)N(C)C1CCCCC1)S(=O)(=O)c1ccc2c(c1)NC(=O)CO2 (stereo not shown) | 14
O=C(Nc1cccc(S(=O)(=O)NC2=NCCC2)c1)c1c(F)cccc1Cl | 0.454
Cc1cc(C)cc(NCC(=O)Nc2c(C)cccc2C)c1 | 0.639

Structure (SMILES) | hERG current change (%, negative = inhibition) at 10uM [%]
Cc1cc(C)n(CC(=O)N2CCCC(N3CCN(c4ccc(F)cc4)CC3)C2)n1 (stereo not shown) | -18.1
O=c1[nH]c(-c2ccccc2)nnc1-c1ccccc1 | -5.79
Cc1nn(-c2ccccc2)c(C)c1C(=O)OC/C(O)=C(\C#N)c1nc2ccccc2[nH]1 | -3.02
Cc1ccc(OCCn2ncc3ccccc3c2=O)c(C)c1 | 1.23
CNCC(O)CN1CCN(c2ccccc2OC)CC1.Cl (stereo not shown) | 12.7
COc1ccc(-n2ccnc2SCC(=O)NCc2ccccc2)c(OC)c1 | -3.19
Cc1oc(-c2cccc(C(F)(F)F)c2)nc1CN1CCC[C@H]1CO | -35
CC(Sc1ccccn1)C(=O)Nc1ccc2c(c1)OCO2 (stereo not shown) | 11.8
C[C@]12CC[C@@H](O)C[C@@H]1CC[C@@H]1[C@@H]2CC[C@]2(C)C(=O)CC[C@@H]12 | 5.99
COc1cc2c(cc1OC)-c1cc(Nc3ccc(C)cc3)nc(=O)n1CC2 | -8.97
COc1ccc(S(=O)(=O)N/N=C(/C)c2ccc(C)o2)cc1 | -3.77
NNC(=O)CSc1ncc(-c2ccccc2)[nH]1 | 37.3
O=C(O)c1c(F)c(F)cc2ccccc12 | -3.2
COc1ccc(CN(C)C(c2ccccc2)c2nnnn2-c2ccccc2C)c(OC)c1C (stereo not shown) | 17.6
COc1ccc(CC(=O)Nc2ccccc2C(C)=O)cc1S(=O)(=O)N1CCOCC1 | -15.3
CC(C)(O)C#Cc1ccc(C(=O)N2CCN(c3ccc(F)cc3)CC2)cc1 | -11.4
COc1ccc(NC(=O)N2CCC(n3nnc4cc(C)ccc43)CC2)cc1 | -11.3
CCCCN1C(=O)c2ccc(C(=O)NC3=NCCS3)cc2C1=O | 5.86
O=C(NNC(=O)c1cccnc1)Nc1cccc(Cl)c1Cl | 15.8
O=C(CN1CCN(c2cccc(C(F)(F)F)c2)CC1)N(C1CCCC1)C1CCS(=O)(=O)C1 (stereo not shown) | -30.3
CC(=O)OC1N=C(c2ccccc2)c2cc(Br)ccc2N(C)C1=O (stereo not shown) | -19.2
C=CCn1c(SCC(=O)N2CCOCC2)nc(O)cc1=O | 17.5

Structure (SMILES) | hERG current change (%, negative = inhibition) at 10uM [%]
O=C(C1CCN(c2nc(-c3ccccc3)nc3c2CCC3)CC1)N1CCCC1 | -35.8
CC(C)C(NC(=O)CSc1ccc(Cl)cc1)C(C)C | 1.46
C=CCn1c(CNS(=O)(=O)c2ccc(F)cc2)n[nH]c1=S | 16.9
COCCNCc1ccccc1[N+](=O)[O-] | 1.14
COc1ccc(C2(CNC(=O)c3ccc(OC)c([N+](=O)[O-])c3)CCCCC2)cc1OC | -20.7
Cn1ccnc1SCC(=O)Nc1cccc(S(=O)(=O)N2CCCCCC2)c1 | -33.5
Cc1ccnc(NC(=O)c2ccc(Br)s2)c1.Cl | -5.88
CCCn1c(=O)[nH]c(=O)c2c1nc(-c1ccccc1)n2CCN1CCOCC1 | -15.3
O=C(CCNC(=O)c1ccc(Br)cc1)NCc1cccnc1 | -0.472
O=C(Nc1cccc(S(=O)(=O)N2CCCC2)c1)c1ccccc1OC(F)F | -13.7
Oc1ccc(Br)cc1CNc1cnc2ccccc2c1 | 16.4
O=S(=O)(NC1CCCCC1Oc1ccccc1)c1ccc(Cl)cc1 (stereo not shown) | -13.1
O=C(C[n+]1cn(C(F)F)c2ccccc21)c1ccc(Br)cc1.[Br-] | -9.95
COc1ccc(S(=O)(=O)N2CCOCC2)cc1NC(=O)CNC(=O)c1cccs1 | 7.47
CCc1ccc(NC(=O)[C@H](NC(=O)[C@@H]2Cc3ccccc3CN2)c2ccccc2)cc1 | -55
CCCNS(=O)(=O)c1ccc(OCC(=O)Nc2ccc3c(c2)OCCO3)cc1 | -3.72
Cc1[nH]c(=O)[nH]c(=O)c1S(=O)(=O)N1CCCC(C(=O)NCCc2ccccc2)C1 (stereo not shown) | 16.5
CCc1cccc2c(C=C(C#N)C#N)cn(CC(=O)N3CCCCCC3)c12 | 4.86
COc1ccc(S(=O)(=O)N2CCC(C(=O)N3CCCC3)CC2)cc1 | -3.42
CN(CC(=O)Nc1ccccc1C(=O)NC1CC1)Cc1ccc(Cl)s1 | -40.7
COc1cc(C=O)c(Cl)cc1OCC(N)=O | 6.54
COc1ccc(OC)c(CCNC(=O)C(C)n2nc(C)c3c(C)n(-c4ccccc4)nc3c2=O)c1 (stereo not shown) | -0.756

Structure (SMILES) | hERG current change (%, negative = inhibition) at 10uM [%]
CN1C(=O)C(O)(C2CCCCCC2=O)c2ccccc21 (stereo not shown) | 4.45
CC1(C)CC(=O)C2=C(C1)OC(N)=C(C#N)C2c1ccc(OC(=O)N2CCOCC2)cc1 (stereo not shown) | -5.53
O=C(NC1CC1)c1ccc(NS(=O)(=O)c2ccc(F)cc2)cc1 | -33.8
O=C(O)c1nn(Cc2csc(-c3ccccc3)n2)c(=O)c2ccccc12 | 23.1
c1ccc(COc2cccc(CNn3cnnc3)c2)cc1 | 2.73
CCC(CC)C(=O)N1N=C(c2ccc(NS(C)(=O)=O)cc2)CC1c1ccccc1 (stereo not shown) | -41.4
c1ccc(CC2CCN(C3=Nc4cccc5cccc3c45)CC2)cc1 | -80
Cc1csc(NC(=O)c2ccccc2O)n1 | -12.7
CC1CCCCN1S(=O)(=O)c1ccc(C(=O)Nc2sccc2C(N)=O)cc1 (stereo not shown) | 4.13
O=C(COc1ccc(S(=O)(=O)N2CCCC2)cc1)N1CCN(c2ccccc2F)CC1 | -32.3
O=C(NNS(=O)(=O)c1ccccc1)C1CCN(S(=O)(=O)c2ccccc2)CC1 | 11
COC(=O)c1ccc(CSc2n[nH]c(-c3ccccc3)n2)o1 | 20.8
CC(CCc1ccccc1)NC(=O)c1nnc(Cc2ccc(Cl)cc2)o1 (stereo not shown) | 15.3
N#CCC(=O)c1ccccc1Oc1ccc(Cl)cc1 | 8.42
O=C(O)COc1ccccc1/C=N/NC(=O)c1cc(-c2ccccc2)nc2ccccc12 | 13.5
COc1cccc(NC(=O)COC(=O)Cn2c(C)csc2=O)c1 | 3.45
CNC(=O)C1CCC(=O)N1Cc1ccccc1Cl (stereo not shown) | 8.18
CCC(=O)N1CCN(c2ccc(NC(=O)COc3ccccc3Cl)cc2)CC1 | -15.6
CC1(CCc2ccccc2)NC(=O)N(CC(=O)O)C1=O (stereo not shown) | -0.692
COc1ccc(CN(C(=O)CN2C(=O)c3ccccc3S2(=O)=O)C(C(=O)NCC2CCCO2)c2ccncc2)cc1 (stereo not shown) | -10.3
Cn1c(N)c(C(=O)CSc2nnc(Cc3cccs3)n2C2CC2)c(=O)n(C)c1=O | -13.3
CN(C)C(=O)CSc1nnc(C23CC4CC(CC(C4)C2)C3)o1 | -8.75
